Laboratory results as given in PubChem BioAssay (Tox21).
The shares of active, inactive and inconclusive entries below differ from those in the screen. For some of these results: Where the call is inconclusive, the potency comes from a doubtful curve fit. The source made the active and inactive calls. Unless noted, calls come from the whole dose curve; as a rule, active = well fitted curve in the direction sought with a large enough effect in the repeat runs; inconclusive = weak or mixed curves; inactive = no such curve, though single readings can be large; an effect the other way counts as inactive or inconclusive.

Key:
[1] = qHTS assay to identify small molecule that activate the aryl hydrocarbon receptor (AhR) signaling pathway - cell viability counter screen (AID 743086); note: nearly all actives have a fitted effect of over 45% in size
How it was run: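 HepG2-AhR-luc (HG2L7.5c1) cells, 4000/well, were preincubated 5 h at 37C, exposed to compound in qHTS format for 24 hr at 37C, then given CellTiter-Fluor for 30 min; viability was read as fluorescence in the reporter wells.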

[2] = biological target: Peroxisome proliferator-activated receptor gamma (Homo sapiens) (UniProt P37231); test: qHTS assay to identify small molecule agonists of the peroxisome proliferator-activated receptor gamma (PPARg) signaling pathway (AID 743094; active = well fitted activation curve with a large enough effect in the signal ratio in the repeat runs, not every such curve was filed as active; inconclusive = weak or mixed curves, or effect the other way; inactive = no such curve, though single readings can be large or run the other way; the % refers to the signal ratio; for activation: % is set by controls: 0 for no effect and ±100 for the full control effect); settings: HEK293H PPARg-UAS-bla, beta-lactamase FRET ratio, 17 h; activation: at 57 µM (top of the series) unless noted
Sequence of UniProt P37231 (P37231 whole entry, looked up): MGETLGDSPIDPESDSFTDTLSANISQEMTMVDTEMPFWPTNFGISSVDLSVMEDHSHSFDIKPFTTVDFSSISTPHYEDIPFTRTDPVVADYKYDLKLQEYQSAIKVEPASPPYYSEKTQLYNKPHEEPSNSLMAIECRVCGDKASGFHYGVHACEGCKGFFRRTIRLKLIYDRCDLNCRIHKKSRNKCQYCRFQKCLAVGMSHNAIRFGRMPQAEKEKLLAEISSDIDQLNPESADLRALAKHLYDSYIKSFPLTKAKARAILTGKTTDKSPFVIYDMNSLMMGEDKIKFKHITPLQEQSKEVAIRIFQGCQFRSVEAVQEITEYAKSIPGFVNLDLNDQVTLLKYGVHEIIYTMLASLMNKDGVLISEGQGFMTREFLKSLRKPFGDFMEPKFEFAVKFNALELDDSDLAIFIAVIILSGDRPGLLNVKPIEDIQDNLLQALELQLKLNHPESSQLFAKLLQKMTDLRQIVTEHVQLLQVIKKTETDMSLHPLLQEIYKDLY
How it was run: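 Quantitative HTS agonist mode: stable HEK293H line with UAS-beta-lactamase reporter under PPARg control, 17 h compound exposure at 37C, fluorescence after 1 h FRET substrate loading at room temperature.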

[3] = biological target: Peroxisome proliferator-activated receptor gamma (Homo sapiens) (UniProt P37231); test: qHTS assay to identify small molecule antagonists of the peroxisome proliferator-activated receptor gamma (PPARg) signaling pathway (AID 743191; calls by dose curve; note: nearly all actives have a fitted effect of over 30% in size); settings: HEK293H PPARg-UAS-bla, beta-lactamase ratio, antagonist, 17 h; ratio activity, negative = inhibition: at 62.6 µM (top of the series) unless noted
How it was run: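 GeneBLAzer PPARg UAS-bla HEK293H cells carrying a UAS-driven beta-lactamase reporter were plated at 3000 cells/well, preincubated 5 h at 37C, then given compound for 17 h at 37C; LiveBLAzer B/G FRET substrate was read after 1 h at room temperature.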

[4] = qHTS assay to identify small molecule antagonists of the peroxisome proliferator-activated receptor gamma (PPARg) signaling pathway - cell viability counter screen (AID 743194); settings: PPARg-bla HEK293H viability, CellTiter-Glo luminescence, 17 h, co-treated with 50 nM rosiglitazone; activity change, negative = cytotoxicity: at 62.6 µM (top of the series) unless noted; note: nearly all actives have a fitted effect of over 55% in size
How it was run: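 PPARg-UAS-bla HEK293H cells were plated, rested 5 h at 37 C, then treated with compounds plus rosiglitazone (50 nM final) for 17 h at 37 C; viability was then read by CellTiter-Glo luminescence after 30 min at room temperature.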

[5] = qHTS assay for small molecule agonists of the antioxidant response element (ARE) signaling pathway (AID 743202; active = well fitted activation curve with a large enough effect in the signal ratio in the repeat runs, not every such curve was filed as active; inconclusive = weak or mixed curves, or effect the other way; inactive = no such curve, though single readings can be large or run the other way; the % refers to the signal ratio; for activation: % is set by controls: 0 for no effect and ±100 for the full control effect); settings: HepG2 ARE-bla reporter, beta-lactamase FRET, 16 h; activation: at 73.3 µM (top of the series) unless noted
How it was run: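 Read-out: LiveBLAzer B/G FRET substrate fluorescence after 2 h at room temperature, following 16 h compound treatment at 37 C of HepG2 cells carrying an ARE-driven beta-lactamase reporter.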

[6] = qHTS assay for small molecule agonists of the antioxidant response element (ARE) signaling pathway - cell viability counter screen (AID 743203; calls by dose curve; note: nearly all actives have a fitted effect of over 55% in size); settings: ARE-bla HepG2 viability, CellTiter-Glo luminescence, 16 h; viability change, negative = cytotoxic: at 73.3 µM (top of the series)
How it was run: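 Seeded at 2,000 cells/well, ARE-bla HepG2 cells were incubated 5 hrs before compound addition. After 16 hrs of treatment at 37C with 5% CO2, CellTiter-Glo reagent was added and luminescence read 30 min later.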

[7] = qHTS assay for small molecule activators of the heat shock response signaling pathway - cell viability counter screen (AID 743209); settings: HSE-bla HeLa viability, CellTiter-Glo luminescence, 5 h; activity change, negative = cytotoxicity: at 62.6 µM (top of the series) unless noted; note: nearly all actives have a fitted effect of over 50% in size
How it was run: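 First, HSE-bla HeLa cells were seeded at 1500 cells/well and kept overnight at 37 C. Next, compounds were pinned in and incubated 5 h. After the FRET substrate step, CellTiter-Glo was added and luminescence read 30 min later.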

[8] = qHTS assay for small molecule activators of the heat shock response signaling pathway (AID 743210; active = well fitted activation curve with a large enough effect in the signal ratio in the repeat runs, with a control signal flat, not every such curve was filed as active; inconclusive = weak or mixed curves; the % refers to the signal ratio); settings: HeLa HSE-bla reporter, beta-lactamase ratio, 5 h; activation: at 62.6 µM (top of the series) unless noted
How it was run: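 HSE-bla HeLa cells (beta-lactamase reporter under heat shock response elements) were exposed to compounds for 5 h at 37 C, then loaded with LiveBLAzer B/G FRET substrate for 2.5 h at room temperature before fluorescence reading.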

[9] = biological target: Peroxisome proliferator-activated receptor delta (Homo sapiens) (UniProt Q03181); test: qHTS assay to identify small molecule antagonists of the peroxisome proliferator-activated receptor delta (PPARd) signaling pathway (AID 743215; active = well fitted inhibition curve with a large enough effect in the signal ratio in the repeat runs, not every such curve was filed as active; inconclusive = weak or mixed curves, or effect the other way; inactive = no such curve, though single readings can be large or run the other way; the % refers to the signal ratio;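 note: cells stimulated with agonist L165041 at 300 nM final during compound exposure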); settings: HEK293H PPARd-UAS-bla, beta-lactamase FRET ratio, antagonist, 17 h; ratio activity, negative = inhibition: at 62 µM (top of the series) unless noted
Sequence of UniProt Q03181 (Q03181 whole entry, looked up): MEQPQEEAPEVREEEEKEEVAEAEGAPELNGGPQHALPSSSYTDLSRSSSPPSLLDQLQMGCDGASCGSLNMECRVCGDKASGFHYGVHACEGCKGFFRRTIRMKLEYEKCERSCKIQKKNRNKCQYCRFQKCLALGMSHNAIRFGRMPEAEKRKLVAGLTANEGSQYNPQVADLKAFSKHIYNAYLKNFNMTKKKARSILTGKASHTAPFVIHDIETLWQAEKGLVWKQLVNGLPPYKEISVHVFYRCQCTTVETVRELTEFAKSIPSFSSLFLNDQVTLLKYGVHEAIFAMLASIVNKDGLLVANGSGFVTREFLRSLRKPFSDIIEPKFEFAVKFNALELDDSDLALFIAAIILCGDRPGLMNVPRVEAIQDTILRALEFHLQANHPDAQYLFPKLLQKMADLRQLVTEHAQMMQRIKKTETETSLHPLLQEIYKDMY
How it was run: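 Inhibition of L165041-driven (300 nM final) PPARd signaling is scored in HEK293H UAS-bla cells. Exposure lasts 17 h at 37 C; beta-lactamase activity is then read by FRET substrate fluorescence after 2 h at room temperature.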

[10] = biological target: Bile acid receptor (Homo sapiens) (UniProt Q96RI1); test: qHTS assay to identify small molecule antagonists of the farnesoid-X-receptor (FXR) signaling pathway (AID 743217; active = well fitted inhibition curve with a large enough effect in the signal ratio in the repeat runs, not every such curve was filed as active; inconclusive = weak or mixed curves, or effect the other way; inactive = no such curve, though single readings can be large or run the other way; the % refers to the signal ratio); settings: HEK293T FXR-UAS-bla, beta-lactamase ratio, CDCA-stimulated, 16 h; activity change, negative = inhibition: at 62.6 µM (top of the series) unless noted
Sequence of UniProt Q96RI1 (Q96RI1 whole entry, looked up): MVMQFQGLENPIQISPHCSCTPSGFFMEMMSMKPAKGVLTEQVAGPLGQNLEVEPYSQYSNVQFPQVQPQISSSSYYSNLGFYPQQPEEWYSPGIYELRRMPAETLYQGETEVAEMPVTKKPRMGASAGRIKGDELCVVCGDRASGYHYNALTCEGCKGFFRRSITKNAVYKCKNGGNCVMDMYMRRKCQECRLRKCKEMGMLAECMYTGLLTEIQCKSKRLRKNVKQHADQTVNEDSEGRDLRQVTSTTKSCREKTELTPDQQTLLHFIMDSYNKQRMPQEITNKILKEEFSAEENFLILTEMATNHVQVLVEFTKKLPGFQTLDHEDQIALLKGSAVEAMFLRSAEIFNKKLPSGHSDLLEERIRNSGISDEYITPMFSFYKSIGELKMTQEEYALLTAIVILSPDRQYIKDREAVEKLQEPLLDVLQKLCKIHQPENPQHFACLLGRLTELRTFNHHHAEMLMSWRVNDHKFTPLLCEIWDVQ
How it was run: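 Antagonist mode against 50 uM (final) chenodeoxycholic acid stimulation in FXR-bla HEK 293T cells, 16 h at 37 °C. Inhibition detected as reduced beta-lactamase activity via LiveBLAzer B/G FRET fluorescence after 2 h at room temperature.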

[11] = qHTS assay to identify small molecule agonists of the farnesoid-X-receptor (FXR) signaling pathway - cell viability counter screen (AID 743218); settings: FXR-bla HEK293T viability, CellTiter-Glo luminescence, 16 h; viability change, negative = cytotoxic: at 62.6 µM (top of the series) unless noted; note: nearly all actives have a fitted effect of over 45% in size
How it was run: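 Cytotoxicity counter-screen run in parallel, same wells: FXR-UAS-bla HEK 293T cells dosed 16 h at 37 C, viability read by CellTiter-Glo luminescence after 30 min at room temperature.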

[12] = biological target: Vitamin D3 receptor (Homo sapiens) (UniProt P11473); test: qHTS assay to identify small molecule agonists of the vitamin D receptor (VDR) signaling pathway (AID 743222; calls by dose curve); settings: HEK293T VDR-UAS-bla, beta-lactamase FRET ratio, 16 h; activation: at 63.5 µM (top of the series) unless noted
Sequence of UniProt P11473 (P11473 whole entry, looked up): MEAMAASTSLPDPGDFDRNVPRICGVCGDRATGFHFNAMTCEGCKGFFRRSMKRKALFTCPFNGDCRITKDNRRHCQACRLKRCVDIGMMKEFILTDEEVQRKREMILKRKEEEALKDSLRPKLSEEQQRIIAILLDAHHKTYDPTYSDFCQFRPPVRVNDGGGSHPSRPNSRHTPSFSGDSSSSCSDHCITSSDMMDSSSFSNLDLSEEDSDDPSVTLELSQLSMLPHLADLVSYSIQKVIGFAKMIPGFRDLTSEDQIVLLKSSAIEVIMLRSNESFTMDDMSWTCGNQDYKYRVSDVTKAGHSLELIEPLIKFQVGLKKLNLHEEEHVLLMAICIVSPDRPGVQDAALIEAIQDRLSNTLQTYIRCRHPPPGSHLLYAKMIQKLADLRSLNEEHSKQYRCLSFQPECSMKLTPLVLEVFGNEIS
How it was run: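 Quantitative HTS agonist-mode screen: compounds in DMSO were pin-transferred onto VDR-bla cells and incubated 16 h at 37C, 5% CO2. Reporter activity was detected with LiveBLAzer B/G FRET substrate after 2 h at room temperature.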

[13] = biological target: Aryl hydrocarbon receptor (Homo sapiens) (UniProt P35869); test: qHTS assay to identify small molecule that activate the aryl hydrocarbon receptor (AhR) signaling pathway (AID 743085); note: nearly all actives have a fitted effect of over 15% in size;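 for activation: HG2L7.5c1 human HepG2 liver cells with stably integrated DRE-driven firefly reporter; % is set by controls: 0 for no effect and ±100 for the full control effect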
Sequence of UniProt P35869 (P35869 whole entry, looked up): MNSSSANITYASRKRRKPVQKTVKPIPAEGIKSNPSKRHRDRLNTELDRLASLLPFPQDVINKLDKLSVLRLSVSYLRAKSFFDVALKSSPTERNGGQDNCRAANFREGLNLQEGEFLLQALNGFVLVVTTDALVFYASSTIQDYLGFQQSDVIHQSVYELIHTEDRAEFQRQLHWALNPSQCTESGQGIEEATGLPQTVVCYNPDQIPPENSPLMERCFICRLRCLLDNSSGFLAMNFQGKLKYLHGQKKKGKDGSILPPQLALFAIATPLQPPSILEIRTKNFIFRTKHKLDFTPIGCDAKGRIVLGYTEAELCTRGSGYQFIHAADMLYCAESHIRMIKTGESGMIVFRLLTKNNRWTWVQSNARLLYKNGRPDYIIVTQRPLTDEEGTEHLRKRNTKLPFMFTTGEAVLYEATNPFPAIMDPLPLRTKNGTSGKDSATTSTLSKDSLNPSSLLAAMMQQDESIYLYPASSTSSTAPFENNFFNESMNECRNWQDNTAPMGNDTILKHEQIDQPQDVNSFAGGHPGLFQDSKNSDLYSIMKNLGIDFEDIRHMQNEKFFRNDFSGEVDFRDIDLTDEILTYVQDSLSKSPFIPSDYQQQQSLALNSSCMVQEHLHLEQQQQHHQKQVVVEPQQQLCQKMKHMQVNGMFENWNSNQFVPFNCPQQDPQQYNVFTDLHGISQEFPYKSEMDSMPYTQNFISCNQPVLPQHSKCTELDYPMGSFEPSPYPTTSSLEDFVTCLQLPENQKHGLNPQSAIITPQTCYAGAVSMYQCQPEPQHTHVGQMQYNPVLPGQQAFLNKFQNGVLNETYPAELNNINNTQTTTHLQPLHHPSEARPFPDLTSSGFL
How it was run: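 Cell line HG2L7.5c1 (human hepatoma, 20× DRE-luc). Plated, 5 h 37C, compound/DMSO added, 24 h 37C. CellTiter-Fluor 30 min 37C → fluorescence; then ONE-Glo 30 min RT → luminescence.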

[14] = biological target: Vitamin D3 receptor (Homo sapiens) (UniProt P11473); test: qHTS assay to identify small molecule antagonists of the vitamin D receptor (VDR) signaling pathway (AID 743223; active = well fitted inhibition curve with a large enough effect in the signal ratio in the repeat runs, not every such curve was filed as active; inconclusive = weak or mixed curves, or effect the other way; inactive = no such curve, though single readings can be large or run the other way; the % refers to the signal ratio; for activity change, negative = inhibition: % is set by controls: 0 for no effect and ±100 for the full control effect); settings: VDR-UAS-bla HEK293T, beta-lactamase FRET ratio, 16 h; activity change, negative = inhibition: at 61 µM (top of the series) unless noted
How it was run: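 Antagonist mode uses 1alpha,25-dihydroxyvitamin D3 at 3 nM final as stimulus. VDR-bla cells receive compounds in DMSO, incubate 16 h at 37C, then a beta-lactamase FRET substrate for 2 h at room temperature before fluorescence measurement.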

[15] = biological target: Peroxisome proliferator-activated receptor delta (Homo sapiens) (UniProt Q03181); test: qHTS assay to identify small molecule agonists of the peroxisome proliferator-activated receptor delta (PPARd) signaling pathway (AID 743212; calls by dose curve); settings: HEK293H PPARd-UAS-bla, beta-lactamase FRET ratio, 17 h; activation: at 62.6 µM (top of the series) unless noted
How it was run: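 GeneBLAzer PPARd UAS-bla HEK293H cells (beta-lactamase reporter under UAS control), plated and rested 5 h at 37 C, then exposed to compounds in DMSO at 37 C; LiveBLAzer B/G FRET substrate added, 2 h room temperature, fluorescence read.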

[16] = qHTS assay to identify small molecule agonists of the peroxisome proliferator-activated receptor delta (PPARd) signaling pathway - cell viability counter screen (AID 743211); settings: PPARd-bla HEK293H viability, CellTiter-Glo luminescence, 17 h; activity change, negative = cytotoxicity: at 62.6 µM (top of the series) unless noted; note: nearly all actives have a fitted effect of over 55% in size
How it was run: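 HEK293H PPARd-bla, 3000 cells/well; 5 h preincubation 37C/5% CO2; cpd in DMSO, 17 h 37C; B/G FRET substrate 2 h RT; CellTiter-Glo 30 min RT, luminescence.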

[17] = qHTS assay to identify small molecule antagonists of the peroxisome proliferator-activated receptor delta (PPARd) signaling pathway - cell viability counter screen (AID 743213); settings: PPARd-bla HEK293H viability, CellTiter-Glo luminescence, 17 h; viability change, negative = cytotoxic: at 62 µM (top of the series) unless noted; note: nearly all actives have a fitted effect of over 50% in size
How it was run: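 Cytotoxicity counter screen: CellTiter-Glo luminescence read 30 min after addition, in the same wells as the reporter assay. There, PPARd UAS-bla HEK293H cells (3000/well) were treated 17 h at 37 C with compound and 300 nM L165041.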

[18] = biological target: Bile acid receptor (Homo sapiens) (UniProt Q96RI1); test: qHTS assay to identify small molecule agonists of the farnesoid-X-receptor (FXR) signaling pathway (AID 743220; active = well fitted activation curve with a large enough effect in the signal ratio in the repeat runs, not every such curve was filed as active; inconclusive = weak or mixed curves, or effect the other way; the % refers to the signal ratio); settings: HEK293T FXR-UAS-bla, beta-lactamase FRET ratio, 16 h; activation: at 62.6 µM (top of the series) unless noted
How it was run: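 Beta-lactamase reporter under UAS control in GeneBLAzer FXR HEK 293T cells (5000/well) measured with LiveBLAzer FRET substrate after 2 h at room temperature. Compound exposure lasted 16 h at 37C.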

[19] = qHTS assay to identify small molecule agonists of the vitamin D receptor (VDR) signaling pathway - cell viability counter screen (AID 743224); settings: VDR-bla HEK293T viability, CellTiter-Glo luminescence, 16 h; activity change, negative = cytotoxicity: at 62.6 µM (top of the series); note: nearly all actives have a fitted effect of over 50% in size
How it was run: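 Viability is measured in the same wells as the VDR-bla reporter assay: after 16 h compound treatment and 2 h substrate loading, CellTiter-Glo is added and luminescence read 30 min later.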
Potency is the fitted concentration of half-maximal effect; tags give direction and shape of the fitted curve or compound fluorescence and quenching.

C[C@@H](O[C@H]1OCCN(Cc2n[nH]c(=O)[nH]2)[C@H]1c1ccc(F)cc1)c1cc(C(F)(F)F)cc(C(F)(F)F)c1
inconclusive: Potency [1] 26.6 µM [falling, single point] | Potency [3] 33.5 µM [inhibitor] | Potency [4] 33.5 µM [cytotoxic, single point] | Potency [5] 33.5 µM [falling, single point] | Potency [6] 33.5 µM [cytotoxic, single point] | Potency [8] 33.5 µM [single point] | Potency [10] 29.8 µM | Potency [11] 33.5 µM [cytotoxic, single point] | Potency [12] 29.8 µM [inhibitor, partial curve, poor fit]
inactive: Potency [2]
active: Potency [7] 29.8 µM | Potency [9] 29.8 µM

CCCC1CCC(=O)CC1
inactive: Potency [13] | Potency [5]
inconclusive: Potency [4] 8.71 µM [rising, full curve, poor fit] | Potency [12] 34.7 µM [rising, partial curve] | activity change, negative = inhibition [14] 31.2% [activator]

CC(NN)c1ccccc1 (stereo not given)
inactive: Potency [4]
inconclusive: Potency [13] 23.7 µM [activator, partial curve] | Potency [12] 14.6 µM [activator, single point]

c1ccc(C[n+]2cccc3ccccc32)cc1
inconclusive: Potency [13] 54.5 µM [activator, partial curve] | Potency [4] 61.7 µM [cytotoxic, partial curve, poor fit] | Potency [5] 27.3 µM [falling, partial curve, poor fit] | Potency [15] 21.9 µM [rising, partial curve, poor fit] | activity change, negative = inhibition [14] -1.79%

CNS(=O)(=O)c1cc(C(=O)N2CCC(CCN3C4CCC3CC(n3c(C)nc5ccccc53)C4)(c3cccc(F)c3)CC2)c(Cl)cc1F (stereo not given)
active: Potency [16] 8.71 µM | Potency [17] 7.76 µM | Potency [11] 7.76 µM
inconclusive: Potency [1] 12.2 µM [falling, full curve] | Potency [2] 2.19 µM [rising, partial curve] | Potency [3] 6.92 µM [fluorescent, partial curve] | Potency [4] 24.5 µM [cytotoxic, partial curve, poor fit] | Potency [5] 54.5 µM [falling, partial curve, poor fit] | Potency [6] 30.6 µM [cytotoxic, full curve] | Potency [8] 32.7 µM | Potency [15] 2.19 µM [rising, full curve, poor fit] | Potency [10] 5.49 µM [rising, full curve, poor fit] | Potency [18] 1.74 µM [rising, full curve, poor fit] | Potency [12] 3.47 µM [fluorescent, full curve] | Potency [14] 4.36 µM | Potency [19] 11 µM [cytotoxic, full curve]

CN(CCOc1ccc(NS(C)(=O)=O)cc1)CCc1ccc(NS(C)(=O)=O)cc1
inconclusive: ratio activity, negative = inhibition [3] 3.66%
inactive: Potency [13] | Potency [6] | Potency [15]

O=C1CCc2ccc(OCCCCN3CCN(c4cccc(Cl)c4Cl)CC3)cc2N1
active: Potency [4] 15 µM | Potency [6] 16.8 µM | Potency [7] 26.6 µM | Potency [17] 13.3 µM | Potency [11] 13.3 µM | Potency [19] 11.9 µM
inconclusive: Potency [5] 13.3 µM [rising, single point] | Potency [8] 28.7 µM | Potency [10] 21.1 µM [partial curve]
inactive: Potency [13]
